# ± gives the standard deviation of the averaged measurements. Some of the results follow.
# Tested on: PfAP2-I AP2 domain 3 (GST-tagged)
# Experiment: gcPBM binding intensity (ln(normalized median fluorescence intensity)); higher = stronger DNA binding
# Outline: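 Probes on an Agilent 4 × 180k array were primer-extended, double-stranded and 36 bp long, taken from intergenic genomic regions, with negative controls added. GST-tagged P. falciparum DNA-binding domains from E. coli, about 25 μg on average, were applied to the array for 1 h in 1× PBS containing 1% milk, 0.2 mg/ml BSA, 0.5% salmon testes DNA and 0.03% Triton X-100. Binding intensity, obtained after Alexa488 anti-GST antibody detection and a 488 nm scan, is the highest Masliner-normalised natural-log median intensity across replicate spots of either probe orientation.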
row,Sequence,gcPBM binding intensity (ln)
1,ATTATTATTTATATGATACACACGTACATATACGCA [CACACA_site3823],7.86 ± 0.46
2,TATAAAAAATAATTATCATGAAATATATGATCATCA [TGCATGCA_negctrl_site137],7.37 ± 0.64
3,TCAAAAATGAGTTACACACACACATATATATATATA [CACACA_site2229],9.46 ± 0.32
4,ATATGAATAAATAAAAGTACATACATAATGTATTAT [XGTACX_site5969],7.75 ± 0.53
5,TTAAAAAAAATATAATGTACTTGTAGAATTATATTT [XGTACX_site6220],7.54 ± 0.39
6,TATATTTTTTATAAATGTACATGGATAGGCATAAAC [XGTACX_site8401],8.48 ± 0.7
7,ACAAATAAATAAAAAACACACACAAATAAATAAATA [CACACA_site8708],7.71 ± 0.69
8,AGTATATAAAATACTGTATCGATGGGGGAGGGCGCA [CACACA_negctrl_site1612],9.6 ± 0.31
9,AATATAATGCAATATACACACATATATTTCTCTTTT [CACACA_site7276],8.59 ± 0.099
10,TAATAATAAAATATTTGTACATATAAAATATGGCTG [XGTACX_site7904],7.5 ± 0.35
11,TATATATAATATATATGTACATAATATATTTTATAT [XGTACX_site2909],7.74 ± 0.18
12,TAAAACACTCATGGCACACATAAAACATTTTTATGA [CACACA_site3574],8.18 ± 0.24
13,AGTTTAAATTAAATTACACACTACGAATAATATATT [CACACA_site7811],7.86 ± 0.28
14,AGTATAAGCATTATTGTGCACATAATTATAATTTTT,10.6 ± 0.53
15,TATTAATCTTTTTTTAAACAAAAAATTAAGCAAATT [CACACA_negctrl_site884],7.59 ± 0.57
16,TATATATTAATAAATAGTACCCGTGGAATTTATATT [XGTACX_site5855],7.75 ± 0.4
17,GTTGCAATTAACACTAGTACATATAAGTAGTTTATT [XGTACX_site2063],7.72 ± 0.61
18,ATTGTTCTCCAAAAGTGTACGTATTATTTTTCTGGA [XGTACX_site1404],7.92 ± 0.53
19,AATAATGAAACAGGAAAAAAATATTGTTAAAATGTA [XGTACX_negctrl_site400],7.95 ± 0.78
20,AACAAATATATTAACACACAAACATATAAACCAATG [CACACA_site3970],7.96 ± 0.64
21,AATTATTGTGAAGGGAAAACAAAAAAGTTTATAATT [CACACA_negctrl_site1337],8.01 ± 0.72
22,AACTAATAAAAAAAAAGTACACAATATGTAAATAAC [XGTACX_site5263],8.29 ± 0.38
23,AAGCGAATATATATCACACACAAAAAAATCAGACTA [CACACA_site2108],7.7 ± 0.62
24,AAATTAATTAAATATACACACATATATAGATATATA [CACACA_site6321],7.5 ± 0.49
